The other results are listed elsewhere or left out. At the low end of the ranking, values are background and their order means little. Measured with an extract: partners may take part in the binding.

The target of the assay is T1, HNF4alpha2 (COS-7 nuclear extract) (UniProt P41235).
T1 sequence: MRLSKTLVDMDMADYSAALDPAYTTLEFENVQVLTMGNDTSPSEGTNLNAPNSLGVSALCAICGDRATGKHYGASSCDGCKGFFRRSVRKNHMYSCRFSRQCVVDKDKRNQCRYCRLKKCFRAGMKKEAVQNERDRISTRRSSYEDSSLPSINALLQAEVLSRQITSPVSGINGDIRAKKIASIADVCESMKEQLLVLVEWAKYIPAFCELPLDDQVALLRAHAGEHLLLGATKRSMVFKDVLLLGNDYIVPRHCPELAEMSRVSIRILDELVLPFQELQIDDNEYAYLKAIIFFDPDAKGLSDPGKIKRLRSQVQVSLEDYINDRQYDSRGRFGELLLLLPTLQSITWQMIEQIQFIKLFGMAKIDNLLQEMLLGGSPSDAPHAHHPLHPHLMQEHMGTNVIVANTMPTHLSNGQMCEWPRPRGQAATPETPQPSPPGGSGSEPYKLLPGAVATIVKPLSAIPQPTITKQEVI
Kind of assay: protein-binding microarray. As to conditions: COS-7 nuclear extract on double-stranded Agilent 4x180k PBM; binding buffer, salt, pH and temperature not given; high values mean tight binding; double strand, one strand shown; sequences stand for … in …GCCTAGGGAGATTAGAGTATCGGTCGA
As for CTGTGGTCATTAATTAACTTGTGTTCAGAG, the binding signal (log2 normalized intensity) came to 1.77.
To TTGGCAGATTAGATATATCTGTACTCAAAC belongs 1.27.
To GGAATGTCTGACCAACCTGTCCAAAGGTCA belongs 7.66; to CCACAGAAACGCAGTCCTGAAAACACACAT, -1.06.
For TTCCCTTTGATCTTTCCCTTCCTGGCCAAC the value was 1.1; for AGAAGACAAAACAGCGTACTGTGCTAAAGA, -1.14; for AGAGCCTAGTTCATTGCAATTACTCAATAA, -0.91.
Take GAGTAAATACGAACCGTCGTAATGGCTAAG: the binding signal (log2 normalized intensity) is -1.
Take CCCCCGGACCCAAAGTAAACAAAGATACTC: the binding signal (log2 normalized intensity) stood at 1.99.
For the sequence CTCTGCTGATAGCATAAAGCTAGGAGACAA, the binding signal (log2 normalized intensity) was -1.1.
For CGCTAACTTCCAGATCAAAGGACATTTCTA the value was -0.977; for GGCAAGACTGCCACCTACTGACCAAATGGG, -1.16.
For TGGAGCCACTATTCATAAAGTTCTCTGGCA the value was 0.197; for TTGCAAATAAAAGTTATCACCATCAGATCT, -1.2; for TGGTAATCTCTTTTGTGTTAGAGGGTGGTG, 2.14.
For GCTAAAAGCAGCATCCCTGATAAACCTGTT the value was -1.1.
Take CAGCTGGGGCCCAGGTCGAAGTTTATGTTT: the binding signal (log2 normalized intensity) is 1.76.
For GAGACAGACAGAAAACAAACATTAGCTGCA the value was -1.03; for ACAGTCCACTTTGAATCAGGAGAGCATCTG, -1.17; for CTGGCTATTCAGTTTTTATTTTGTATTCTT, 1.95.
To TCCCACTCTTGGGTCAACATAATATTTAGC belongs 0.395; to CAGCAGCTCAGTAAATTATCTTGATGGTTA, 0.142; to AACTTCTGTCCACAGACTCTGACTGTTATC, 0.194.
To ATTGGCCCTTTGACCTTTAATCAAGGGCTG belongs 5.08; to CTTATCTTCTCCACAGATTCCTGTTAACTT, 1.18; to GACTGACCTTTGATCATTTGAGGGTGACAC, 5.65.
For the sequence AACACTTACACCTGGGTGCTCCCTCCCCCT, the binding signal (log2 normalized intensity) turned out to be 4.36.
Regarding ATGATAATGCCAAGGACTGAAAGAACACAG, the binding signal (log2 normalized intensity) was -1.12.
For GGAAGGATGAATTTAAAAAATTCTAGAGTT the value was -1.17; for TTCAAAGTTTTTCCCCTTGGTGGATTCCGT, 2.19; for TTCCTTCTTCTTCTGGGGACTTCGGTCTTT, 3.34.
For TGGATGGAATGTTCTGAATCTATCTGTTAG the value was 0.843.
To GGTTTAAAGTTCAAGTCATAACTGGATGGT belongs 1.88; to ACCATTAACCCTACAGTCCTGCCACATCCC, -1.24; to ACCTAAGATGTCACAGGCAAGCAAGTGACA, -1.06.
Turning to GCAATGTGTCAGAGAAGGAGCCAGAGCTTT, the binding signal (log2 normalized intensity) was -1.03.
To TCAGACGCCCTATGGCGTCCGCCTCGACCC belongs 1.29; to CCGTGGACTCTGCCTGCCCTCTCCATGCAG, 1.05.
CCTCAAGGAGTTTTAGATTAGGAGAGGGAG: the binding signal (log2 normalized intensity) is -1.09.
To AGGCCTCGGCTTCATTAGCAAATAACAAAG belongs -1.11; to ACTCGTGAAAAGAGTGATCTTTGGGCCATA, 1.98; to ACCTGCATCTGCCCAGCAGAGCAGTTTAGA, -1.23.
For TGCAATGTTAGTCTGGGAAAGCTGCAGGCA the value was -1.03; for TGCCTCTCCAAACAAATTGAGAAAGATTAA, -0.951.
For CAAAAATGATACCCCAGAGTACAGCACTTT the value was 0.584; for AATTCCAGTTACAAACAAAACAAACTAAAC, -1.07; for CCAAGTCTGGACCTGCTGGCTTTCTTTGGA, 0.129.
For GAGAATCCCTCCCCTGTGCAAACTTTTTCC, the binding signal (log2 normalized intensity) is 2.04.
To GTTGAAATCCATTGTCAATACCCTGTTATT belongs 0.783.
For CTTTGTGTACAAAGCCATCAGCACTGGTTC the value was -0.206.
To TTACCTAAGGAAGTTAACCCCATCACCCAT belongs 3.3.
For the sequence TGATGAACTTTCAAGATGAAGCAAGAGTCC, the binding signal (log2 normalized intensity) came to 0.976.
Regarding ATCCGGCTGGCAGCCGATTGACCTGACCCA, the binding signal (log2 normalized intensity) is 2.96.
For GTGGGGTGGAAGCTATGCCTGAGGCTGAGG the value was -1.21; for TTCTGCCCTGCCCTCAGGGAATCCTGCATT, 0.806.
For TGGACTGTTCAAGACCAAAGGTCATGGCAA the value was 4.79; for AAACATCAAGGAAGAGAACTCCCTATCCCC, 0.894; for TGAGTTTTCCATTTACCTCCGCTGAACCTA, 1.05.
To CCGTGGGGCTCCTTTGATCTCCGTGTTTGG belongs 1.77; to TAAAAAGAAGCTTGGTATGTCTGATGAATA, 0.69; to TTGGACTTTGACCTCCAAAATTATAAGTCA, 8.25.
Consider TGCTGAGCAACTATAAAACAGGAAAAAGGG, for which the binding signal (log2 normalized intensity) was -1.21.
For CTATAAATACGCCTCGCCCGAGCTGTGCGG the value was -1.11; for AGTCTTCCTGTCTCCATTGCCTCACCTCTC, 0.625.
For ACCCTTGAGCTAAGTCCCAAGGGATAGGCA the value was -1.09; for GGTTAAAGTCCAATCTTCTGGCCCCATCTA, 4.04.
For GTATGTCTGGGATTTGAAGGAGCAGAATAA the value was 0.12; for AAGCCCTACAGCCCACAATTGCATGTTCAA, -1.14.
As for ACTTTGGACCCACTGCAGGATTGGAGATCT, the binding signal (log2 normalized intensity) turned out to be 0.999.
To GCTAAGAAGACCAACAGGTGAAGACATGCT belongs -1.08; to TCAGTGTACTTAAAAATGCCTTTCATCTTT, 0.854; to TGTAATTGCTTAAACCTAGCTACTAGCCAT, -1.07.
To TGTTTGGGGCAGGCAGGGGATGAGATCTGA belongs -1.01.

(Values after article PMC10726135.)
